# Test results reported in the supplement of paper PMC10338343.
# ± gives the standard deviation. The list shows a part of the results, in another mix than the full data.
# System: MIWI (PIWIL1) piRISC loaded with piRNA #1 (30 nt)
# Test: pre-steady-state target cleavage rate (min^-1); MIWI and MILI are mouse PIWI proteins and EfPiwi is from a freshwater sponge; tags in brackets are library labels; higher = faster piRNA-guided slicing of the target
# Conditions: guide: piRNA #1 5'p-UGAGGUAGUAGGUUGUAUAGUAUCCAGAGG; auxiliary factor: 500 nM mouse GTSF1
# In short: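 Active affinity-purified piRISC carrying one synthetic guide (1 nM) was mixed with a transcribed, DNA-blocked target RNA library […] in HEPES–potassium acetate buffer at 33 °C for 0–8 or 0–960 min, with or without 500 nM GTSF1 partner protein. Uncleaved targets were then sequenced and normalised to depth and to weakly complementary targets. Three trials were pooled, and k3 was capped at 0.0001 min^-1. A burst-and-steady-state fit was applied to obtain the pre-steady-state cleavage rate.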
# 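Further: 1 nM active piRISC with 0.1 nM target library at 33 °C single turnover.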
row,Sequence,pre-steady-state target cleavage rate
1,GGAGACCAUACUAUACAACCUACUACCUUA,1.74 ± 0.13
2,GGAGACCAUACUAUACAACCUACUAUCCUCA,1.47 ± 0.075
3,GGAGACGAUACGUAUACAACCUACUACCUCA,1.4 ± 0.13
4,GGAGAGGAUACUAUACAACCUACUCACCUCA,0.894 ± 0.07
5,GGACUGGAUACUAUACAACCUAGUACCUCA,0.432 ± 0.073
6,GGAGUGGAAACUUUACAACCUACUACCUCA,1.17 ± 0.085
7,GGAGACCUAUCUAUACUACCUACUACGUCA,0.025 ± 0.0069
8,GGUCAGGAUACUAUACAACCUACAACCUCA,0.515 ± 0.04
9,GCUCUGCAUACUAUUCAACCUACUACCUCA,1.93 ± 0.12
10,GGAGAGGAAACUAUACAACCUACUAGCUCA,0.274 ± 0.053
11,GGAGUCGAUACUAAACAACCUACUACCUCA,1.53 ± 0.1
12,CCUCUGGAUACUAUUCAACCUACUACCUCA,1.87 ± 0.12
13,GGAGACCUAACUAUACAACCUUCUACCUGA,0.126 ± 0.035
14,GGAGACCUAUGUAUACAACGUACUACGUCA,0.00269 ± 0.0026
15,GGAGACCUUACUAUACAACCUACUUGCUCA,0.258 ± 0.025
16,GGAGACCUUACUAUACAACCAACUACCUGA,0.0543 ± 0.0098
17,GGAGACCUAUGAAAUACAACCUACUACCUCA,0.00576 ± 0.0027
18,GGAGUGGAUAGUAUACAUCCUACUACCUCA,0.651 ± 0.046
19,GGAGUGGAUAUUAUACAACCUACUACCUCA,1.48 ± 0.072
20,GGAGACCUUACUAUCAACCUACUACCUCA,0.284 ± 0.03

row,Sequence,pre-steady-state target cleavage rate
1,GGAGACCAUUCUAUACAACCUACAACCUCA,0.667 ± 0.075
2,GGACUGGAUACUAUACUACCAACUACCUCA,0.0216 ± 0.0039
3,GGAGAGGAUACUAUACAACCUAACUACCUCA,0.0248 ± 0.0042
4,GGAGACCUAACUAAACAACCUUCUACCUCA,0.0156 ± 0.0057
5,GGAGACCUUACUAUACAACCUGCUACCUCA,0.579 ± 0.052
6,GGUCUGGAUACUAUACAACGUACUACCUGA,0.352 ± 0.045
7,GGAGACCUAACUAUACUACCUACUACCUGA,0.0795 ± 0.023
8,GGAGUGGAUACUAUACAACCAACUAGCUCA,0.0216 ± 0.0041
9,GGAGAGGAUACUAAACUACCUACUACCUCA,0.824 ± 0.059
10,GGAGACCUUAGUAUACAAGCUACUACCUCA,0.261 ± 0.03
11,GCUCUGGAACUAUACAACCUACUACCUCA,1.79 ± 0.11
12,GGAGACCUAACUAUACAAGCUAGUACCUCA,0.248 ± 0.026
13,GGACUGGAUACUAUAGAACCUACUACCUGA,0.0735 ± 0.019
14,GGAGACCUUACUAAACAACCUAGUACCUCA,0.198 ± 0.027
15,GGACUGGAUAGUAUAGAACCUACUACCUCA,0.983 ± 0.069
16,GGAGACCAUACUAUACAACCUAGAACCUCA,0.0693 ± 0.016
17,GGUCUGGAAACUAAACAACCUACUACCUCA,1.67 ± 0.12
18,GGAGAGAAUACUAUACAACCUACUACCUCA,1.79 ± 0.1
19,GGAGAGGAUACUAUACAACGUACAACCUCA,0.147 ± 0.032
20,CCUCUGCAUACAAUACAACCUACUACCUCA,2.02 ± 0.12
